Measurements: the supplement of paper PMC11417369
± gives the standard deviation of the averaged measurements. This is one part of the list.

Tested on: PfAP2-LT AP2 domain (GST-tagged)
Experiment: gcPBM binding intensity (ln(normalized median fluorescence intensity)); higher = stronger DNA binding
Summary of the method: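 An Agilent 4 × 180k array carrying primer-extended double-stranded 36-bp intergenic genomic probes and negative controls received GST-tagged P. falciparum DNA-binding domains expressed in E. coli, about 25 μg on average, for 1 h. The binding buffer contained 1× PBS, 1% milk, 0.2 mg/ml BSA, 0.5% salmon testes DNA and 0.03% Triton X-100. Binding intensity is the top Masliner-normalised natural-log median intensity across replicate spots of either probe orientation, read after Alexa488 anti-GST antibody staining and a 488 nm scan.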

Sequence | gcPBM binding intensity (ln)
ATATAAATATAAACATGTACATATATATATATATAT [XGTACX_site2824] | 9.76
AAATTTATATAAAACAGTACAATTAAAAAAAAAATA [XGTACX_site8015] | 8.64 ± 0.5
ATATATATATATGTGTGTACTTATTTATTTATTTGT [XGTACX_site549] | 9.74 ± 0.18
TTTTCTTAATATTTATGTATATATATAATATGATAT [TGCATGCA_negctrl_site572] | 8.52 ± 0.49
TAATAAATCCTATATAGTACATATATGCAAGTATGT [XGTACX_site3955] | 8.94 ± 0.33
ATGTAACACATATTTGGTACAGATAGATAAAAGTAT [XGTACX_site8291] | 9.06 ± 0.49
TATATATATATATTCACACATAAAAATAAAATAAAA [CACACA_site4774] | 8.72 ± 0.43
TTTTTAAATAACCTATATATTATTATGAAACATAAA [CACACA_negctrl_site916] | 8.1 ± 0.47
GTATAATATATTTATAGTACATAATTATTTATAAAT [XGTACX_site1826] | 8.62 ± 0.5
TTAATATTGTATCCAAGTACACAAATTATTATATTT [XGTACX_site8067] | 8.71 ± 0.47
CAATATTATTATATTTGTACACATGCGTATTTTTTA [XGTACX_site4154] | 8.9 ± 0.46
ATATTATGTGATTGTGCACACTGGAGATTTTTTTTA [CACACA_site1453] | 9.18 ± 0.46
CCCGTAAATACAAAAAGTACAAAAGTTCATCTTATA [XGTACX_site1154] | 8.94 ± 0.41
CATGATATATAAATATGTACATATATATATATATAT [XGTACX_site1760] | 9.78 ± 0.28
TAATAATAATATAAAATACACACCTATTATTTTTAC [CACACA_site4003] | 8.73 ± 0.37
ATTGATTTTTAATATACACACATAAGTACCACAAAA [CACACA_site339] | 8.85 ± 0.3
ACATTAATATAAAGCACACATATATATAATATATAT [CACACA_site508] | 8.94 ± 0.28
AAAAATATAAACTGCACACACAAAAAAAAAAGAGAA [CACACA_site1367] | 9.51 ± 0.36
TATAACATATTTATATATGACATTATCTATTCATTT [CACACA_negctrl_site864] | 8.74 ± 0.53
ATAAAAAAATATGTAAACATATATATGTATTTATGT [CACACA_negctrl_site1517] | 8.89 ± 0.45
TTAAAATAAAGAGCAGTGCGCATATTTTGTTATTAT [GTGCAC_site9753] | 8.88 ± 0.47
TTTTTATATTTTATTAGTACTTATTATATATATAAT [XGTACX_site4900] | 8.69 ± 0.4
TTTTTTTTTAAAGAAAATAAAAATATGTACTTGACA [CACACA_negctrl_site1113] | 8.18 ± 0.4

Sequence | gcPBM binding intensity (ln)
AAACAATTTTTATTTTGTACATAACAATATATTTAT [XGTACX_site1375] | 8.7 ± 0.37
CATAAAAATGTATCAAGTACACATTTATTTATCCAT [XGTACX_site152] | 8.73 ± 0.4
GTATAACACAAGTGAAGTACAGGGGTAAACATTTAT [XGTACX_site3203] | 9.13 ± 0.45
TACAGATAAAAGTACACACACACACCGATATATATA [CACACA_site4675] | 10.12 ± 0.099
AATTTAAATTCATCACGTACATACGTGAATATACAC [XGTACX_site5220] | 8.91 ± 0.52
ATTTTACATATTTGCACACATATATTTATATACATA [CACACA_site854] | 9.26 ± 0.38
TTATTTGTTTAATATGCATGCTAAAAGGGTTGATGT [TGCATGCA_site581] | 8.77 ± 0.52
GAGTAAAACAAATATACACACCATAAAGTTATAAAA [CACACA_site5008] | 9.15 ± 0.39
AATATAAAAATGCACACACACAAAAAAAAAAAAAAA [CACACA_site6546] | 9.51 ± 0.42
TTTAAAATATTGTATTGTACGCAATAAAAAATACCA [XGTACX_site182] | 8.51 ± 0.43
ATTAAATAAAATCATGCACACAATATATATTTTAAG [CACACA_site2495] | 8.79 ± 0.45
ATAAGCATCTTTTGTGTGCACATAACAAAAAAAAAA | 9.07 ± 0.4
TCTAACATATCTTTAATACACACTTAAAAAAGTACT [CACACA_site652] | 8.55 ± 0.41
ATTTATCTATATATATGTACATATTATTTTTGTGGT [XGTACX_site7390] | 9.02 ± 0.49
ATAAAAAAATATAAATGTACATATATATATATATAT [XGTACX_site5620] | 9.39 ± 0.38
GATATACAATTTAAGTGTACTATAATAAAATATATA [XGTACX_site3013] | 8.62 ± 0.39
TATATTAATTCGTTTTGTACACACATAATGAATAAT [XGTACX_site4618] | 8.95 ± 0.36
TGAGAAAGCGCATATTGTACTATATATTTTAACCAC [XGTACX_site4098] | 9.03 ± 0.34
AATCCATTCTATTTTTTACACACGTATGTAAATATT [CACACA_site8860] | 9.14 ± 0.37
AATATATATGGACATGCATGGACATAATAATCTATT [TGCATGCA_site838] | 9.04 ± 0.31
GAAAATAATGTTACATGTACGAATATGTAACTATTG [XGTACX_site6833] | 8.76 ± 0.43
ATAGATATACATATCACACATATATATATATATATA [CACACA_site4985] | 9.765 ± 0.05
AAATACATATATACATGTACATAAATATATATATAT [XGTACX_site5367] | 9.15 ± 0.19

Sequence | gcPBM binding intensity (ln)
TAAGGTAGTTCTGTATCACACACATATATATATATA [CACACA_site8693] | 9.71 ± 0.2
TAATTAAAATTAAGAAGTACATTTTACTTTTAATGC [XGTACX_site5120] | 8.32 ± 0.33
AAAAAATACTTATAAAGTACTAATATATATAAGCAG [XGTACX_site743] | 8.71 ± 0.42
GAGAAATTTATACATACACACATATATATATTATAT [CACACA_site4038] | 9.08 ± 0.4
TATCATGTTTTTATGGTGCATGAAATCACACATTGA | 8.72 ± 0.43
AATACAAACCAAAAAGTAAATACATCAACATGATCA [CACACA_negctrl_site140] | 8.99 ± 0.42
TTTATTAATAAGAAATGTACACAAAATTATTTCCAA [XGTACX_site5970] | 8.45 ± 0.43
ATAGAGTCATTCCTCACACACACGCTATATGAATAG [CACACA_site2047] | 9.46 ± 0.28
TGGCACTAAAAAAATAAACACACAGATTTATATAAT [CACACA_site8386] | 8.88 ± 0.53
CCTGAAATTTTATTATGTACATATTATAAAATGATT [XGTACX_site1434] | 8.48 ± 0.42
ATAACCACATAAAATATAATTATATATATATATATA [CACACA_negctrl_site603] | 9.19 ± 0.36
ATTCCTCCCATGGAATGTACTCATCAAATAAATAAA [XGTACX_site6543] | 8.46 ± 0.42
TACACCATGATACATACACACAGACATATACTCATT [CACACA_site4708] | 9.3 ± 0.35
TCCAAATGTTTGCGTTGTACTCTTTTTTTAAAACTA [XGTACX_site5148] | 8.79 ± 0.54
AATAAAAAGGAAAGGTATATGTGTGCCCTTGTGTTA [TGCATGCA_negctrl_site83] | 8.99 ± 0.42
AAATTTTCATGTGTTGCATGCTGAACTATTTTATCA [TGCATGCA_site856] | 8.9 ± 0.37
AAGGAATATATATACATACACACATATATATATATA [CACACA_site1665] | 9.81 ± 0.3
AGTGGATGAGGACATACACACACACCGAAGTTGATA [CACACA_site9132] | 9.48 ± 0.47
AAAAAAAAAAAAAAAAAAAAAAATATATATATATAT [XGTACX_negctrl_site33] | 9.49 ± 0.2
ATATAATAAATATATTGTACATATGAATCTACTAAA [XGTACX_site7610] | 8.65 ± 0.46
TAAAAAATGATAGAAGTGCATAAAATAATATATATA [GTGCAC_site9904] | 8.77 ± 0.55
GACTTGAAGAAATAAGTGCAGAGTTTTATTTTAATT [GTGCAC_site9912] | 8.64 ± 0.57
TTTCTATTTCCTTCACATCTTTTCATCTTTTTTTTT [CACACA_negctrl_site1110] | 8.71 ± 0.43

Sequence | gcPBM binding intensity (ln)
AAAAAATTCCTATATACACACACGCACATATTTATA [CACACA_site6192] | 9.43 ± 0.28
AAATAAATAAAAAACACACACAAATAAATAAATATA [CACACA_site2249] | 9.46 ± 0.39
TATTTTTTCCTTTGTTTTTTAAACTATCTTAACTAA [XGTACX_negctrl_site519] | 8.52 ± 0.5
ATTTATTAAATAAAAAGTACAAAATAAGAAAGAAGA [XGTACX_site6935] | 8.79 ± 0.57
ATATATAATATAATATGTACATAAAATTTTAACATT [XGTACX_site5773] | 8.93 ± 0.49
TTATATATATCTAATTGTACAATATTATGTTCATTA [XGTACX_site7479] | 8.74 ± 0.44
TATATTCCCTTAATCACACATAAATAAAAAAAAATA [CACACA_site6094] | 8.47 ± 0.42
AAAAAAACAGTGAATGCACACATTTAAGATCCATAT [CACACA_site3148] | 9.13 ± 0.41
TACATACATACAGGAGTGCATATATCACAATTATTA | 8.92 ± 0.37
AAAAAAAAAAAAACTACACACATACAAATATTTATA [CACACA_site5430] | 9.07 ± 0.52
TATTTCCTTTTTCTTGTTATTCATGAGAAAAAATGA [CACACA_negctrl_site482] | 8.19 ± 0.35
GAAATTTTTAATGTGGTGCACAGGAAATTTTTTCTT | 8.69 ± 0.45
AAAATAATAATAGGCACACATATATATATATATATA [CACACA_site2058] | 9.99 ± 0.21
AAGAATCATATTTAAACACACATACAGATATATATA [CACACA_site5787] | 8.89 ± 0.42
ACGACTAAATATATGAGTACATATATATATAAATAT [XGTACX_site7522] | 8.88 ± 0.47
TGCAAAAAATTCCACACACACACACCCATATAAATA [CACACA_site1230] | 9.9 ± 0.028
TCTAAAATAAATAATGCATGTTAAAAAAAAATATAT [TGCATGCA_site562] | 8.59 ± 0.43
AATTTGGTGTGTGTAAAAGTATGTGTCTATATTTAT [GTGCAC_negctrl_site166] | 9.55 ± 0.19
AGTTATATGATTAATACACACAACAAATGTTTCTTC [CACACA_site1092] | 8.99 ± 0.4
ATGTATGTTTATTACTATTTTGAGAATAGACTATAA [CACACA_negctrl_site1366] | 8.46 ± 0.41
